The list shows a part of the results. Sequences were assembled here from the parent chain. Inactive controls read about 0.05.
B1: TEV protease; numbered along this chain (parent)
chain: MGESLFKGPRDYNPISSSICHLTNESDGHTTSLYGIGFGPFIITNKHLFRRNNGTLVVQSLHGVFKVKDTTTLQQHLVDGRDMIIIRMPKDFPPFPQKLKFREPQREERICLVTTNFQTKSMSSMVSDTSCTFPSGDGIFWKHWIQTKDGQCGSPLVSTRDGFIVGIHSASNFTNTNNYFTSVPKNFMELLTNQEAQQWVSGWRLNADSVLWGGHKVFMVKPEEPFQPVKEATQL

Variants of: B1
Assay: raw area under fraction-flipped curve 0-4 h after induction (AUC4h, not background-subtracted), DNA-recorder readout of cleavage of the substrate (dimensionless); higher = more cleavage of the substrate by the protease variant
Conditions: temperature: 34 °C; time window: 0-4 h after rhamnose induction
Experimental: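 In vivo DNA recorder in E. coli TOP10(DE3) ΔrhaA at 34 °C. Each TEVp single-site mutant (parent TEVp 0) is paired with a single-site variant of the 7-mer TEVs (canonical ENLYFQ|S). The substrate sits between flexible linkers in a Bxb1-sfGFP-TEVs-SsrA fusion, so cleavage stabilises Bxb1 and speeds flipping of a recombination array, read by NGS. The value is the raw area under the fraction-flipped curve over 0-4 h after rhamnose induction (AUC4h), with ≥20 reads per time point. It is not background-subtracted; inactive controls average about 0.047.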
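Further: Bxb1 expression induced with 0.2% (w/v) L-rhamnose at OD600 near 0.5, cultures sampled hourly, flipped fraction per protease–substrate barcode pair counted by paired-end Illumina sequencing.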

Row | Variant | area with substrate ENLYFQA | area with substrate ENLYFQC | area with substrate ENLYFQE | area with substrate ENLYFQG | area with substrate ENLYFQH | area with substrate ENLYFQK | area with substrate ENLYFQP | area with substrate ENLYFQR | area with substrate ENLYFQS | area with substrate ENLYFQT | area with substrate ENLYFQW | area with substrate ENLYFQY | area with substrate ENLYFQL | area with substrate ENLYFQN | area with substrate ENLYFQV | area with substrate ENLYFQD | area with substrate ENLYFQI | area with substrate ENLYFQM | area with substrate ENLYFQF | area with substrate ENLYFQQ
1 | L73R | 0.0454 | 0.0626 | 0.0282 | 0.0519 | 0.0457 | 0.0537 | 0.0365 | 0.0502 | 0.0585 | 0.0574 | 0.0456 | 0.0513 | – | – | – | – | – | – | – | –
2 | Q75E | 0.0661 | – | 0.0542 | – | – | 0.0475 | 0.0676 | 0.0538 | 0.0698 | 0.065 | – | – | 0.0551 | 0.0594 | 0.0259 | – | – | – | – | –
3 | Q75W | 0.0669 | 0.0718 | – | – | 0.0674 | 0.0608 | – | 0.0616 | 0.0666 | – | 0.0748 | – | 0.0466 | – | 0.0597 | 0.065 | 0.0484 | 0.0638 | – | –
4 | H76W | 0.131 | – | – | – | 0.0777 | – | – | 0.0555 | 0.0806 | 0.0564 | – | 0.071 | – | 0.0704 | – | – | 0.0627 | 0.0622 | – | –
5 | D79F | 0.0869 | 0.106 | 0.0714 | 0.0848 | – | 0.0379 | 0.0346 | 0.0514 | 0.0881 | 0.0449 | 0.0737 | – | 0.0584 | 0.0696 | 0.0555 | 0.0705 | 0.0588 | 0.0788 | 0.0752 | –
6 | D79K | 0.0839 | – | 0.0638 | – | 0.071 | 0.0558 | – | 0.0598 | 0.0904 | 0.0589 | 0.0746 | 0.0473 | 0.0634 | 0.0956 | – | 0.0709 | 0.0547 | 0.0734 | – | –
7 | D79M | 0.0824 | 0.102 | – | 0.0808 | – | – | 0.067 | 0.0587 | 0.0936 | 0.0707 | 0.067 | – | 0.0519 | 0.0738 | 0.0635 | 0.0634 | 0.058 | 0.0787 | – | 0.0756
8 | D79S | 0.101 | 0.074 | – | 0.0952 | 0.0805 | 0.0714 | 0.069 | 0.0463 | 0.0963 | 0.0661 | 0.0742 | – | 0.0711 | 0.0645 | 0.0521 | – | 0.0537 | 0.0812 | 0.0936 | –
9 | D82L | 0.0519 | 0.0551 | – | – | 0.0944 | 0.0714 | 0.051 | 0.0522 | 0.0561 | – | 0.0508 | 0.0398 | – | 0.0536 | 0.0506 | – | 0.0607 | 0.0514 | 0.0443 | 0.0723
10 | I84S | 0.0689 | 0.066 | – | – | 0.0584 | 0.06 | – | 0.0597 | 0.0666 | 0.0725 | 0.0538 | – | 0.0516 | 0.0675 | – | 0.0595 | 0.0578 | 0.0661 | – | –
11 | I85Y | 0.056 | – | 0.0376 | 0.0549 | – | – | 0.0715 | 0.0724 | 0.0606 | 0.0747 | 0.0584 | 0.0519 | 0.0612 | 0.064 | – | 0.0586 | 0.0615 | 0.0586 | – | 0.0603
12 | P89Y | 0.0694 | 0.0683 | 0.0326 | – | – | 0.0191 | 0.05 | – | 0.0699 | 0.0602 | 0.0428 | 0.0606 | – | 0.0733 | 0.0986 | 0.0694 | – | – | – | 0.0706
13 | K90H | 0.0984 | 0.129 | – | 0.105 | 0.0765 | 0.0606 | – | 0.065 | 0.1 | 0.0692 | 0.0688 | – | 0.057 | 0.0799 | 0.0512 | – | 0.0546 | 0.101 | 0.0882 | –
14 | K90V | 0.112 | 0.125 | – | 0.0962 | – | 0.0703 | – | – | 0.103 | 0.0625 | 0.0544 | 0.063 | 0.0723 | 0.0613 | 0.058 | 0.0698 | 0.0664 | 0.0845 | – | 0.0822
15 | P94T | 0.0953 | 0.106 | – | – | – | 0.063 | – | – | 0.115 | 0.0589 | – | 0.0923 | – | 0.0793 | – | – | 0.0654 | – | – | –
16 | P94W | 0.0883 | 0.103 | – | 0.0766 | 0.0779 | 0.0742 | 0.067 | 0.0584 | 0.101 | 0.0622 | 0.0552 | 0.0706 | 0.0641 | 0.0721 | 0.0504 | – | 0.0514 | 0.0324 | 0.0702 | –
17 | F95H | 0.0677 | 0.0769 | – | 0.0728 | 0.0793 | 0.054 | 0.0727 | 0.0538 | 0.0895 | – | 0.0626 | 0.0605 | 0.0458 | 0.067 | – | 0.0746 | 0.0598 | – | – | –
18 | K98N | 0.129 | 0.118 | – | 0.0932 | 0.0863 | 0.0665 | 0.0495 | 0.0606 | 0.103 | 0.0413 | 0.0653 | – | 0.074 | 0.0786 | – | – | 0.0678 | 0.101 | – | –
19 | K98P | 0.0986 | 0.112 | – | 0.116 | 0.0751 | 0.0638 | – | 0.0661 | 0.0983 | 0.0587 | 0.0671 | – | 0.0602 | 0.0618 | 0.0683 | 0.0639 | 0.0527 | 0.0783 | 0.0767 | –
20 | K98S | 0.113 | 0.122 | – | 0.0734 | – | 0.0757 | – | 0.0674 | 0.1 | 0.0802 | – | 0.0879 | 0.0674 | 0.0585 | 0.0641 | 0.0606 | – | 0.0799 | – | –
21 | L99Q | 0.095 | 0.115 | – | 0.106 | – | – | – | – | 0.0973 | 0.0444 | – | – | 0.0588 | – | 0.0619 | – | 0.0529 | – | 0.061 | –
22 | F101V | 0.0789 | – | – | – | 0.0568 | – | 0.0521 | 0.0751 | 0.0688 | – | 0.0705 | – | 0.0695 | 0.0501 | – | – | – | – | 0.0638 | 0.0536
23 | R102M | 0.0557 | 0.0576 | 0.0544 | 0.0551 | 0.0504 | 0.06 | 0.077 | 0.0445 | 0.0548 | – | 0.0616 | 0.0425 | 0.0406 | 0.0548 | – | 0.039 | 0.0626 | – | – | 0.0502
24 | E103T | 0.128 | 0.108 | – | – | – | – | – | 0.0727 | 0.0973 | 0.0467 | 0.0681 | – | 0.058 | 0.0813 | – | – | 0.0592 | – | – | 0.0756
25 | Q105I | 0.116 | – | 0.0596 | 0.128 | – | 0.067 | – | 0.0677 | 0.104 | 0.0747 | 0.0783 | – | 0.0587 | – | 0.0645 | – | 0.0538 | 0.0755 | – | –
26 | Q105L | 0.105 | 0.135 | – | 0.0809 | 0.101 | 0.0729 | – | 0.0685 | 0.108 | 0.081 | 0.0674 | 0.0945 | – | – | – | – | – | – | – | 0.082

— the supplement of paper PMC12217912
